The text below walks through data of the supplement of paper PMC4967469.

As usually defined, the IC50 is the concentration at which inhibition is half-maximal.

The IC50 comes from the fitted curve, where viability falls to half of the control; a fit beyond the top or the lowest dose is shown as a bound at that dose. AUC, from the same fit, is the share of area under the viability curve across the 256-fold dose range; values near 1 show little effect. Any top dose called inferred comes from the curve model; the source does not state it. Bounds are passed on as bounds.

What all share (assay): Viability of human cancer cell lines after 72 h of drug (GDSC screen)
Compound in assay [1]: O=C(NC1CCNCC1)c1n[nH]cc1NC(=O)c1c(Cl)cccc1Cl [AT-7519]
The following applies: top dose 10.24 µM; top dose inferred. Here is the method: (§1)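 Human cancer cell lines in 384-well plates, medium with 10% serum, drug for 72 h over a 256-fold dose range (nine 2-fold or five 4-fold steps up to the top dose). Adherent lines were fixed and stained with the nucleic acid dye Syto60, suspension lines read with resazurin; signal relative to control wells, capped at 0 and 100%. One two-parameter sigmoid per drug and line, fitted in a mixed model over all curves with the slope shared within a line.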

Compound in assay [2]: COc1cc(N2CCN(C)CC2)ccc1Nc1nc(N)c(C(=O)c2c(Cl)cccc2Cl)s1 [XMD14-99]
The following applies: top dose 10.24 µM; top dose inferred. The protocol:
as §1

Compound in assay [3]: Cc1cc([N+](=O)[O-])ccc1NS(=O)(=O)c1cc(Cl)ccc1Cl [FH535]
The following applies: top dose 32 µM; top dose inferred. Here is the method:
as §1

Turning to WM35 (melanoma, adherent), the AUC is 0.685 in assay [1], 0.974 in assay [2] and 0.565 in assay [3]. Besides, the figures for the half-maximal inhibitory concentration (IC50) in assay [1], in assay [2] and in assay [3] were 2110 nM, over 10.2 µM and 3.02 µM, respectively.
Regarding Daoy (medulloblastoma, adherent), the AUC in assay [1] amounted to 0.683; in assay [2], 0.987; in assay [3], 0.636. In addition, the IC50 in assay [1] was 1970 nM; in assay [2], over 10.2 µM; in assay [3] it was 4.57 µM.
As to KYSE-70 (oesophagus, adherent), the values for the AUC in assay [1], in assay [2] and in assay [3] were 0.798, 0.984 and 0.562, respectively. For the same cell line, the values for the IC50 in assay [1], in assay [2] and in assay [3] were 5390 nM, over 10.2 µM and 3.01 µM, respectively.
Consider “NCI-H647 (non-small cell lung carcinoma, adherent)”, for which the AUC in assay [1] worked out at 0.43; in assay [2] it was 0.979; in assay [3], 0.865. The IC50 in assay [1] was 408 nM; in assay [2], over 10.2 µM; in assay [3], 30.4 µM.
Take “LU-99A (large cell lung carcinoma, adherent)”: the AUC in assay [1] turned out to be 0.896; in assay [2], 0.985; in assay [3], 0.436. In addition, the IC50 in assay [1] is over 10200 nM; in assay [2], over 10.2 µM; in assay [3], 1.34 µM.
On to HCT-15 (large intestine, adherent), for which the AUC in assay [1] stood at 0.984; in assay [2] it was 0.982; in assay [3], 0.674. In addition, the IC50 in assay [1] was over 10200 nM; in assay [2], over 10.2 µM; in assay [3], 6.33 µM.
As to CaR-1 (large intestine, adherent), the AUC in assay [1] worked out at 0.71; in assay [2], 0.975; in assay [3] it was 0.733. The IC50 in assay [1] was 3440 nM; in assay [2], over 10.2 µM; in assay [3] it was 13.2 µM.
For “NCI-H2085 (lung adenocarcinoma, adherent)”, the AUC in assay [1] is 0.661; in assay [2] it was 0.984; in assay [3], 0.665. Moreover, the IC50 in assay [1] was 1870 nM; in assay [2] it was over 10.2 µM; in assay [3] it was 5.99 µM.
Turning to PANC-10-05 (pancreas, adherent), the figures for the AUC in assay [1], in assay [2] and in assay [3] were 0.562, 0.982 and 0.613, respectively. Moreover, the IC50 in assay [1] is 995 nM; in assay [2], over 10.2 µM; in assay [3] it was 4.47 µM.
As to TYK-nu (ovary, adherent), the AUC in assay [1] is 0.931; in assay [2] it was 0.985; in assay [3], 0.479. The IC50 is over 10200 nM in assay [1], over 10.2 µM in assay [2] and 1.74 µM in assay [3].
On to “NCI-H1993 (lung adenocarcinoma, adherent)”, for which the AUC in assay [1] stood at 0.631; in assay [2] it was 0.982; in assay [3], 0.741. The IC50 in assay [1] is 1650 nM; in assay [2], over 10.2 µM; in assay [3], 12.5 µM.
For the cell line M059J (glioma, adherent), the AUC came out at 0.725 in assay [1], 0.985 in assay [2] and 0.685 in assay [3]. Besides, the IC50 in assay [1] is 2980 nM; in assay [2], over 10.2 µM; in assay [3], 6.92 µM.
With “LOU-NH91 (lung squamous cell carcinoma, adherent)”, the figures for the AUC in assay [1], in assay [2] and in assay [3] were 0.945, 0.983 and 0.541, respectively. In addition, the values for the IC50 in assay [1], in assay [2] and in assay [3] were over 10200 nM, over 10.2 µM and 2.62 µM, respectively.
Consider JHH-4 (liver, adherent), for which the figures for the AUC in assay [1], in assay [2] and in assay [3] were 0.861, 0.987 and 0.474, respectively. Moreover, the IC50 was 8660 nM in assay [1], over 10.2 µM in assay [2] and 1.7 µM in assay [3].
Regarding PANC-02-03 (pancreas, adherent), the AUC was found to be 0.692 in assay [1], 0.982 in assay [2] and 0.693 in assay [3]. In addition, the IC50 in assay [1] was 2490 nM; in assay [2], over 10.2 µM; in assay [3], 7.81 µM.
As for KP-4 (pancreas, adherent), the AUC in assay [1] was found to be 0.711; in assay [2], 0.988; in assay [3], 0.475. Further, the IC50 in assay [1] is 2450 nM; in assay [2] it was over 10.2 µM; in assay [3] it was 1.71 µM.
In the case of BFTC-905 (bladder, adherent), the AUC was found to be 0.439 in assay [1], 0.978 in assay [2] and 0.595 in assay [3]. Also, the IC50 was 448 nM in assay [1], over 10.2 µM in assay [2] and 3.5 µM in assay [3].
Turning to Hs683 (glioma, adherent), the AUC in assay [1] came out at 0.777; in assay [2], 0.974; in assay [3], 0.734. For the same cell line, the IC50 in assay [1] is 4150 nM; in assay [2] it was over 10.2 µM; in assay [3] it was 9.4 µM.
For the cell line COLO-679 (melanoma, adherent), the results for the AUC in assay [1], in assay [2] and in assay [3] were 0.642, 0.977 and 0.527, respectively. The IC50 is 1660 nM in assay [1] and over 10.2 µM in assay [2].
